Test results as given in the supplement of paper PMC6089552.
Several values for one entry are separate records, joined by “and”; a condition that tells them apart may be missing. Equal values may be shown once. The campaign covered roughly 3,200 compounds. About 300 (9.4%) showed activity. This is a selection; strong and weak results do not stand in their true shares.

Tested on: A673/TR/shEF
Assay: cell viability (LOESS-normalised, relative to median of negative controls) (log2 ratio); higher = more viable cells (less compound effect), active = hit call of the paper (over 3 MAD below the median)
Settings: treatment time: 72 h
Procedure, shortened: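 Viability of A673/TR/shEF Ewing sarcoma cells was determined by CellTiter-Glo luminescence. The cells, at 1,500 per well in 384-well plates, were grown with or without doxycycline from 24 h before compound addition to switch on EWS-FLI1 shRNA knockdown, then exposed for three days to library compounds at two or more concentrations or to DMSO controls. Signals were LOESS-corrected plate by plate, normalised to the negative-control median and log2-transformed.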

[1] = 0.25 µM, library screen: screen2, EWS-FLI1 expression: high (no doxycycline)
[2] = 0.25 µM, library screen: screen2, EWS-FLI1 expression: low (doxycycline-induced shRNA knockdown)
[3] = 2.5 µM, library screen: screen2, EWS-FLI1 expression: high (no doxycycline)
[4] = 2.5 µM, library screen: screen2, EWS-FLI1 expression: low (doxycycline-induced shRNA knockdown)
[5] = 0.25 µM, library screen: screen1, EWS-FLI1 expression: high (no doxycycline)
[6] = 0.25 µM, library screen: screen1, EWS-FLI1 expression: low (doxycycline-induced shRNA knockdown)
[7] = 2.5 µM, library screen: screen1, EWS-FLI1 expression: high (no doxycycline)
[8] = 2.5 µM, library screen: screen1, EWS-FLI1 expression: low (doxycycline-induced shRNA knockdown)
[9] = 0.025 µM, library screen: screen1, EWS-FLI1 expression: high (no doxycycline)
[10] = 0.025 µM, library screen: screen1, EWS-FLI1 expression: low (doxycycline-induced shRNA knockdown)
[11] = 25 µM, library screen: screen1, EWS-FLI1 expression: high (no doxycycline)
[12] = 25 µM, library screen: screen1, EWS-FLI1 expression: low (doxycycline-induced shRNA knockdown)

Measured: cell viability (log2)

C=C(C)[C@@H]1C2OC(=O)C1[C@]1(O)CC3O[C@]34C(=O)O[C@H]2[C@]14C.CC(C)(O)[C@@H]1C2OC(=O)C1[C@]1(O)C[C@H]3O[C@]34C(=O)O[C@H]2[C@]14C (stereo partly drawn)
inactive: [1] 0.0987 | [2] 0.0228 | [3] 0.079 | [4] 0.0567

CN1[C@@H]2CC[C@H]1CC(OC(=O)C(CO)c1ccccc1)C2 (stereo partly drawn)
inactive: 0.103 µM, library screen: screen3, EWS-FLI1 expression: high (no doxycycline) -0.0138 | 0.103 µM, library screen: screen3, EWS-FLI1 expression: low (doxycycline-induced shRNA knockdown) 0.0399 | [5] 0.0603 | [6] 0.0968 | 0.308 µM, library screen: screen3, EWS-FLI1 expression: high (no doxycycline) -0.021 | 0.308 µM, library screen: screen3, EWS-FLI1 expression: low (doxycycline-induced shRNA knockdown) -0.00749 | 0.926 µM, library screen: screen3, EWS-FLI1 expression: high (no doxycycline) -0.0329 | 0.926 µM, library screen: screen3, EWS-FLI1 expression: low (doxycycline-induced shRNA knockdown) 0.092 | [7] 0.15 | [8] 0.157 | 2.8 µM, library screen: screen3, EWS-FLI1 expression: high (no doxycycline) -0.023 | 2.8 µM, library screen: screen3, EWS-FLI1 expression: low (doxycycline-induced shRNA knockdown) -0.00135 | 8.3 µM, library screen: screen3, EWS-FLI1 expression: high (no doxycycline) -0.0414 | 8.3 µM, library screen: screen3, EWS-FLI1 expression: low (doxycycline-induced shRNA knockdown) -0.0331 | 25 µM, library screen: screen3, EWS-FLI1 expression: high (no doxycycline) -0.025 | 25 µM, library screen: screen3, EWS-FLI1 expression: low (doxycycline-induced shRNA knockdown) 0.0734

CCCN1CCC[C@H](c2cccc(O)c2)C1
inactive: [1] 0.152 | [2] 0.136 | [3] 0.172 | [4] 0.113

C[C@@H](N)[C@@H](O)c1ccccc1
inactive: [5] 0.199 | [6] 0.05 | [7] 0.0838 | [8] 0.0342

C[C@H](Cc1ccc2c(c1)OC(C(=O)O)(C(=O)O)O2)NC[C@H](O)c1cccc(Cl)c1
inactive: [1] 0.294 | [2] 0.0238 | [3] 0.0374 | [4] 0.0367

CCC1(c2ccc(N)cc2)CCC(=O)NC1=O (stereo not drawn)
inactive: [5] 0.0131 | [6] 0.0834 | [1] 0.134 | [2] 0.158 | [7] 0.129 | [8] 0.179 | [3] 0.202 | [4] 0.19

C[N+]1(C)CCN(c2ccccc2)CC1
inactive: [1] 0.217 | [2] 0.0589 | [3] 0.134 | [4] 0.061

N[C@@]1(C(=O)O)CC[C@@H](C(=O)O)C1
inactive: [1] 0.102 | [2] 0.109 | [3] 0.101 | [4] 0.133

CCn1cc(C(=O)O)c(=O)c2cc3c(cc21)OCO3
inactive: [5] 0.0377 | [6] 0.114 | [1] 0.0369 | [2] 0.0537 | [7] 0.08 | [8] 0.14 | [3] 0.0985 | [4] 0.0431

NCCc1ccc(O)cc1
inactive: [5] 0.0239 | [6] 0.0662 | [1] 0.157 | [2] 0.123 | [7] 0.134 | [8] 0.0729 | [3] 0.116 | [4] 0.0531

c1ccc(N=Nc2ccccc2)cc1
inactive: [5] 0.0795 | [6] 0.0179 | [7] 0.0868 | [8] 0.083

CC(=O)CC1CCCCN1 (stereo not drawn)
inactive: [5] 0.0906 | [6] -0.00634 | [7] 0.0756 | [8] -0.083

C[C@]12C=CC(=O)C=C1CC[C@@H]1[C@@H]2CC[C@]2(C)C(=O)CC[C@@H]12
inactive: [5] 0.0143 | [6] 0.0386 | [7] -0.0049 | [8] 0.0547

COc1ccc2c(c[n+](C)c3c4cc5c(cc4ccc23)OCO5)c1OC
inactive: [1] 0.273 | [2] 0.121 | [3] 0.106 | [4] 0.0124

c1ccc2c(c1)[I+]c1ccccc1-2
active: [1] -1.37 | [2] -0.118 | [3] -1.4 | [4] -0.388

O=[N+]([O-])c1cc([As](=O)(O)O)ccc1O
inactive: [5] 0.0332 | [6] 0.0388 | [7] 0.152 | [8] 0.13

c1cncc(C2=NCCC2)c1
inactive: [5] 0.0511 | [6] -0.0382 | [7] 0.133 | [8] 0.104

CCOP(=S)(OCC)SCCSCC
inactive: [5] -0.0493 | [6] 0.0698 | [7] 0.0164 | [8] 0.0401

COc1cc2c3cc1Oc1cc(ccc1O)C[C@H]1c4c(cc(OC)c(O)c4Oc4ccc(cc4)C[C@@H]3N(C)CC2)CCN1C
inactive: [5] 0.0853 | [6] 0.0939 | [7] 0.083 | [8] 0.276

N#CC(C#N)=Cc1ccc(O)cc1
inactive: [9] 0.0481 | [10] 0.0237 | [5] 0.0596 | [6] 0.0262 | [7] 0.0426 | [8] 0.0755 | [11] 0.0734 | [12] 0.0191

CC1(C)C(C=C(Cl)Cl)C1C(=O)OC(C#N)c1cccc(Oc2ccccc2)c1 (stereo not drawn)
inactive: [9] 0.0827 | [10] 0.0478 | [5] 0.102 | [6] -0.0402 | [7] 0.0354 | [8] -0.0899
active: [11] -0.287 | [12] -0.665

CO[C@@H]1C[C@@H](C[C@H]2CC[C@H](C)[C@H]([C@@H](C)C(=O)O)O2)O[C@]2(O[C@](C)([C@H]3CC[C@@](C)([C@@H]4O[C@@H]([C@H]5O[C@@](O)(CO)[C@H](C)C[C@@H]5C)C[C@@H]4C)O3)C[C@H]2C)[C@@H]1C
active: [7] -0.685

CC(C)(C)c1o[nH]c(=O)c1CC(N)C(=O)O (stereo not drawn)
inactive: [1] 0.0947 | [2] 0.0371 | [3] 0.104 | [4] 0.0294

O=C1CCCN1CC#CCN1CCCC1
inactive: [5] 0.118 | [6] 0.083 | [1] 0.183 | [2] 0.101 | [7] 0.114 | [8] 0.0585 | [3] 0.0464 | [4] 0.0329

CCCN1CCCC2Cc3[nH]ncc3CC21 (stereo not drawn)
inactive: [1] 0.135 | [2] 0.086 | [3] 0.231 | [4] 0.107

C[C@]12N[C@H](Cc3ccccc31)c1ccccc12
inactive: [1] 0.203 | [2] 0.0953 | [3] 0.197 | [4] 0.0712

NC(Cc1cc(O)c(O)cc1O)C(=O)O (stereo not drawn)
inactive: [1] 0.0775 | [2] 0.133 | [3] 0.0832 | [4] 0.2

COc1ccc(CCN2CCC(Nc3nc4ccccc4n3Cc3ccc(F)cc3)CC2)cc1
inactive: [5] 0.062 | [6] 0.123 | [7] 0.0926 | [8] 0.0206

O=C1C=C2C(=CCOC2O)O1 (stereo not drawn)
active: [5] -0.259 | [7] -2.95 | [8] -0.992
inactive: [6] 0.05

C[C@@H]1CC[C@@]2(OC1)O[C@H]1[C@@H](O)[C@H]3[C@@H]4CC[C@H]5C[C@@H](O[C@@H]6O[C@H](CO)[C@H](O[C@@H]7O[C@H](CO)C(O)[C@H](O[C@@H]8OC[C@@H](O)[C@H](O)[C@H]8O)[C@H]7O[C@@H]7O[C@H](CO)[C@H](O)[C@H](O[C@@H]8O[C@H](CO)[C@@H](O)[C@H](O)[C@H]8O)[C@H]7O)[C@H](O)[C@H]6O)[C@H](O)C[C@]5(C)[C@H]4CC[C@]3(C)[C@H]1[C@@H]2C (stereo partly drawn)
inactive: [5] 0.0473 | [6] 0.00355 | [7] 0.099 | [8] 0.184

N[C@H](CCCCCP(=O)(O)O)C(=O)O
inactive: [1] 0.17 | [2] 0.167 | [3] 0.11 | [4] 0.0282

CN1C2C[C@H](OC(=O)[C@H](CO)c3ccccc3)CC1[C@@H](O)C2 (stereo partly drawn)
inactive: [5] 0.0376 | [6] 0.0137 | [7] 0.116 | [8] 0.0715

CC(=O)O[C@@H]1C2CC[C@@H]3C1(C[C@@H](O)[C@@]1(O)[C@@H](C[C@H](O)C1(C)C)[C@]3(C)O)C[C@@]2(C)O (stereo partly drawn)
inactive: [5] 0.0646 | [6] 0.00107 | [7] 0.0644 | [8] 0.0594

CC(N)Cc1c[nH]c2ccc(O)cc12 (stereo not drawn)
inactive: [1] 0.112 | [2] 0.067 | [3] 0.123 | [4] 0.0164

CCC(N)C(O)c1ccc(O)c(O)c1 (stereo not drawn)
inactive: [5] 0.161 | [6] 0.0223 | [7] 0.0883 | [8] 0.0282

CCCN(CCC)C1CCc2ccc(O)cc2C1 (stereo not drawn)
inactive: [1] 0.0963 and 0.19 | [2] -0.0245 and 0.098 | [3] 0.141 and 0.0955 | [4] 0.0152 and 0.0367

OCC(O)Cc1ccc2c(c1)OCO2 (stereo not drawn)
inactive: [5] 0.0615 | [6] 0.039 | [7] 0.0501 | [8] 0.111

CC1=C2[C@H]3OC(=O)[C@@H](C)[C@@H]3CC[C@@]2(C)C=CC1=O
inactive: [5] 0.0669 | [6] -0.0349 | [7] 0.0906 | [8] 0.0161

NNC(N)=O
inactive: [1] 0.0269 | [2] 0.0292 | [3] 0.198 | [4] -0.0477

C=C(C)[C@H]1Cc2c(ccc3c2O[C@@H]2COc4cc(OC)c(OC)cc4[C@@H]2C3=O)O1
inactive: 0.025 µM, library screen: screen2, EWS-FLI1 expression: high (no doxycycline) 0.0593 | 0.025 µM, library screen: screen2, EWS-FLI1 expression: low (doxycycline-induced shRNA knockdown) 0.0961
active: [5] -1.71 | [6] -0.663 | [1] -0.962 | [2] -0.539 | [7] -2.87 | [8] -1.24 | [3] -2.41 | [4] -0.955 | 25 µM, library screen: screen2, EWS-FLI1 expression: high (no doxycycline) -3.79 | 25 µM, library screen: screen2, EWS-FLI1 expression: low (doxycycline-induced shRNA knockdown) -1.03

COC(=O)C1=CCCN(C)C1
inactive: [5] 0.131 | [6] -0.0181 | [1] 0.159 | [2] 0.0966 | [7] 0.24 | [8] 0.114 | [3] 0.0636 | [4] 0.154

Fc1ccc(C(OCCN2CCN(CCCc3ccccc3)CC2)c2ccc(F)cc2)cc1
inactive: [1] 0.187 | [2] 0.0844 | [3] 0.166 | [4] 0.0854
